We go through 146 sequences from the BET-seq Pho4 binding data (Le et al. 2018).

The list shows a part of the results. Values were computed here from the reads of four pooled replicates and scatter widely.

The assay deals with T1, Pho4 (S. cerevisiae) (UniProt P07270).
T1 sequence: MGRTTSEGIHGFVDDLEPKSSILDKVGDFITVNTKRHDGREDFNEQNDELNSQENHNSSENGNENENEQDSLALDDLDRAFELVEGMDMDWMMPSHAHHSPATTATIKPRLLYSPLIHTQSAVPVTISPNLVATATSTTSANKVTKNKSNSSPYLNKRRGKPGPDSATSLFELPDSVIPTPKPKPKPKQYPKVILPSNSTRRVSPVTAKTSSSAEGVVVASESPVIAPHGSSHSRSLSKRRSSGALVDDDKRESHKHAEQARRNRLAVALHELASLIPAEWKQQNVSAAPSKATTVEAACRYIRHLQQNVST
The assay can be described thus: relative binding free energy (BET-seq); higher = weaker binding. Conditions: reference: library average.
Consider CTGTTCACGTGATGGT, for which the “relative binding free energy” value was determined as 0.43 kcal/mol.
Take TCGATCACGTGTGGTG: the “relative binding free energy” value stood at 0.12 kcal/mol.
Next, TTTGTCACGTGCCTTG: -0.02 kcal/mol.
In the case of GGTGTCACGTGTTCTG it was 0.08 kcal/mol; in that of ACTAACACGTGGGGGG, -0.24 kcal/mol; in that of GTGAACACGTGCGTTG, -0.08 kcal/mol.
In the case of TGGATCACGTGCTCTG it was 0.24 kcal/mol.
For the sequence TTCGTCACGTGTAAAT, the “relative binding free energy” value was found to be 0.18 kcal/mol.
For AGATGCACGTGTGTGT, the “relative binding free energy” value is -0.08 kcal/mol.
Consider AAAAACACGTGAGGTT, for which the “relative binding free energy” value was 0.31 kcal/mol.
Next, TTTATCACGTGAAGTC: 0.36 kcal/mol; TGGGTCACGTGCGTGC: -0.01 kcal/mol.
Next, TGGCACACGTGGGGTT: -0.1 kcal/mol; GATAACACGTGTTGAG: 0.03 kcal/mol; AGGGTCACGTGGCTGG: -0.03 kcal/mol.
In the case of GGGTGCACGTGGCGCA it was -0.28 kcal/mol.
Turning to ATCGGCACGTGTGGTT, the “relative binding free energy” value came out at 0.07 kcal/mol.
Take TGGGGCACGTGAGCTG: the “relative binding free energy” value was 0.13 kcal/mol.
In the case of GGTAACACGTGTGTGA it was 0.08 kcal/mol.
In the case of GCGTGCACGTGCGGTT it was -0.12 kcal/mol; in that of GTTGACACGTGTGCTT, 0.03 kcal/mol.
Next, TTTTGCACGTGGAGCA: 0.06 kcal/mol; ATGGGCACGTGCGTGA: -0.22 kcal/mol.
For the sequence ACTTTCACGTGATGGA, the “relative binding free energy” value amounted to 0.35 kcal/mol.
Next, AAGGACACGTGTTTTT: 0.15 kcal/mol.
On to TTTACCACGTGGTTAG, for which the “relative binding free energy” value was -0.16 kcal/mol.
Consider CTTTGCACGTGGCATT, for which the “relative binding free energy” value was -0.02 kcal/mol.
Consider AAGTGCACGTGGTGTC, for which the “relative binding free energy” value was -0.1 kcal/mol.
In the case of TCTAGCACGTGGGTCA it was -0.14 kcal/mol.
As for TGAGGCACGTGGTCGG, the “relative binding free energy” value was -0.13 kcal/mol.
Take TTGTTCACGTGAGGTG: the “relative binding free energy” value came to 0.4 kcal/mol.
Next, GTTGCCACGTGTAGGG: -0.06 kcal/mol; TAGTACACGTGTAATT: 0.16 kcal/mol.
Take TGCGGCACGTGCGAAG: the “relative binding free energy” value came to 0 kcal/mol.
On to TAGTACACGTGAGGTT, for which the “relative binding free energy” value was found to be 0.24 kcal/mol.
Next, TAATCCACGTGTTTTG: 0.14 kcal/mol.
Take GCTGGCACGTGGGAGT: the “relative binding free energy” value was -0.22 kcal/mol.
Consider TAATACACGTGAAGTG, for which the “relative binding free energy” value came out at 0.1 kcal/mol.
In the case of TGGGCCACGTGTCGGA it was -0.13 kcal/mol; in that of TGTCCCACGTGTGGTG, -0.23 kcal/mol; in that of CAGATCACGTGGTTGG, 0 kcal/mol.
Next, GGTTTCACGTGCGTAA: 0.11 kcal/mol; TATGACACGTGCGGTG: -0.19 kcal/mol; ATAGGCACGTGGAGAT: -0.14 kcal/mol.
Take TTCGTCACGTGTTGGG: the “relative binding free energy” value was 0.1 kcal/mol.
In the case of ATTAGCACGTGCTGAG it was -0.12 kcal/mol; in that of ATTAGCACGTGGCAGT, -0.07 kcal/mol; in that of TGTTTCACGTGTCAGC, 0.38 kcal/mol.
In the case of GAGTTCACGTGTTTTC, the “relative binding free energy” value stood at 0.37 kcal/mol.
In the case of ATGAGCACGTGTGATT it was 0.08 kcal/mol; in that of AGATTCACGTGGAGAA, 0.34 kcal/mol.
For the sequence GGGCACACGTGTTTTT, the “relative binding free energy” value was 0.1 kcal/mol.
Regarding CGGGTCACGTGTTGTT, the “relative binding free energy” value was found to be 0.19 kcal/mol.
Turning to ATGCTCACGTGTTATT, the “relative binding free energy” value was determined as 0.06 kcal/mol.
In the case of TGCTTCACGTGGGGGT it was 0.14 kcal/mol; in that of GACGTCACGTGTAGGG, 0.11 kcal/mol; in that of AGATTCACGTGGTATT, 0.21 kcal/mol.
Consider CCTGTCACGTGGTTGG, for which the “relative binding free energy” value came out at 0.1 kcal/mol.
In the case of TGTCGCACGTGGGTCA, the “relative binding free energy” value was -0.37 kcal/mol.
Next, GTCAGCACGTGTTGCT: 0.12 kcal/mol; ATGTTCACGTGTGAGC: 0.26 kcal/mol; AAGGTCACGTGAGAGG: 0.24 kcal/mol.
Next, CGGTGCACGTGTGCAG: -0.03 kcal/mol.
With AAGGACACGTGATATT, the “relative binding free energy” value was 0.16 kcal/mol.
In the case of TGCTTCACGTGTGGTC it was 0.2 kcal/mol.
In the case of GACGGCACGTGGGGTA, the “relative binding free energy” value was -0.2 kcal/mol.
In the case of TATAGCACGTGAGGGA it was 0.13 kcal/mol.
In the case of GGGTTCACGTGTAACT, the “relative binding free energy” value was found to be 0.36 kcal/mol.
Next, GCGTTCACGTGTCGGA: 0.41 kcal/mol.
As to GGGTTCACGTGCCTTG, the “relative binding free energy” value amounted to 0.22 kcal/mol.
In the case of ATGTTCACGTGATTCG it was 0.3 kcal/mol.
Turning to GGATGCACGTGTTAAT, the “relative binding free energy” value was found to be 0.02 kcal/mol.
Next, CTAAACACGTGTGTGT: 0 kcal/mol.
Consider TGTTTCACGTGTCTAT, for which the “relative binding free energy” value turned out to be 0.26 kcal/mol.
In the case of ATGGACACGTGTGTAA it was 0.14 kcal/mol; in that of GTGCGCACGTGTAAGT, 0.23 kcal/mol; in that of ATGTGCACGTGGGTAA, -0.11 kcal/mol.
As for GCAGGCACGTGTGGGA, the “relative binding free energy” value was -0.06 kcal/mol.
Regarding ATGGGCACGTGCAGCT, the “relative binding free energy” value is -0.16 kcal/mol.
Next, TTTGCCACGTGAAGGG: 0.14 kcal/mol; AGATGCACGTGGTTTC: 0.11 kcal/mol; TGCGTCACGTGATGGC: 0.16 kcal/mol.
Next, AGTGGCACGTGTCTGT: -0.16 kcal/mol.
In the case of TTTGTCACGTGAGCTC it was 0.38 kcal/mol; in that of GTATTCACGTGCGGTT, 0.18 kcal/mol; in that of AGTGACACGTGCGGGA, 0.07 kcal/mol.
Take TCGTGCACGTGCTGTT: the “relative binding free energy” value was -0.01 kcal/mol.
As for TCTTGCACGTGGCTTT, the “relative binding free energy” value is -0.06 kcal/mol.
As for GCGTGCACGTGGGCTG, the “relative binding free energy” value is -0.2 kcal/mol.
Next, TCAGTCACGTGAGGTT: 0.32 kcal/mol.
Regarding GGTTACACGTGTTTGA, the “relative binding free energy” value turned out to be 0.16 kcal/mol.
Next, GTAATCACGTGTGATA: 0.22 kcal/mol; ACGGACACGTGTAGTG: 0.08 kcal/mol.
Next, TACTTCACGTGTGGGG: 0.22 kcal/mol; TTATACACGTGTGCTG: 0.02 kcal/mol.
As to AAGCTCACGTGATGGG, the “relative binding free energy” value was found to be 0.19 kcal/mol.
In the case of TGAGTCACGTGACATT it was 0.36 kcal/mol.
Next, GGGTACACGTGTGAGA: 0.26 kcal/mol; GGTTCCACGTGAATTT: 0.45 kcal/mol.
Next, TTTTACACGTGGACAT: 0.12 kcal/mol; GTGGTCACGTGTGCCT: 0.04 kcal/mol.
In the case of ATTACCACGTGGGTAG, the “relative binding free energy” value was -0.17 kcal/mol.
Next, TCGGGCACGTGGACTG: 0.05 kcal/mol; GTCATCACGTGATGGT: 0.18 kcal/mol.
Turning to GTGGGCACGTGCAGAT, the “relative binding free energy” value was 0.02 kcal/mol.
In the case of GGACTCACGTGGATGT it was 0.36 kcal/mol; in that of TCAGTCACGTGGGCTG, -0.05 kcal/mol.
In the case of AGGGTCACGTGTTCTA it was 0.08 kcal/mol; in that of GTATGCACGTGAATTT, 0.28 kcal/mol.
Next, GTGTGCACGTGTTGTT: -0.03 kcal/mol; GGGTTCACGTGTCGAA: 0.27 kcal/mol.
Take CGGTGCACGTGTATTA: the “relative binding free energy” value stood at 0.05 kcal/mol.
For CGTGTCACGTGTCGTG, the “relative binding free energy” value was found to be 0.05 kcal/mol.
Next, GGGGTCACGTGTAATG: 0.28 kcal/mol; TATTGCACGTGCTTAG: -0.1 kcal/mol; GGGCACACGTGTAGTG: 0.1 kcal/mol.
As to TGTAACACGTGGAGGA, the “relative binding free energy” value was -0.08 kcal/mol.
For the sequence TGTATCACGTGAACGT, the “relative binding free energy” value was determined as 0.26 kcal/mol.
In the case of TCGGCCACGTGGGATG, the “relative binding free energy” value was -0.13 kcal/mol.
In the case of TTGGTCACGTGTGTGC it was 0.19 kcal/mol; in that of ATCATCACGTGAAGTG, 0.28 kcal/mol; in that of ATTAGCACGTGGAGTG, -0.11 kcal/mol.
On to GTTAACACGTGTATTA, for which the “relative binding free energy” value was 0.03 kcal/mol.
Take TGCGGCACGTGATGCT: the “relative binding free energy” value is -0.06 kcal/mol.
In the case of CGGTTCACGTGGCTTG it was 0.14 kcal/mol.
Next, TTTTACACGTGATTAC: 0.21 kcal/mol.
Take ATTGTCACGTGTGTAC: the “relative binding free energy” value is -0.01 kcal/mol.
In the case of TGATCCACGTGTAGGT it was 0.15 kcal/mol; in that of GGGTACACGTGTGTTG, 0.15 kcal/mol; in that of ATTCTCACGTGTAGAT, 0.37 kcal/mol.
As to GATATCACGTGAGTGT, the “relative binding free energy” value came out at 0.28 kcal/mol.
TTGTGCACGTGTAAAT: the “relative binding free energy” value amounted to 0.1 kcal/mol.
Regarding GTTTTCACGTGATCTG, the “relative binding free energy” value was found to be 0.39 kcal/mol.
Next, ATTGGCACGTGAGTGG: 0.08 kcal/mol.
Turning to CTGTCCACGTGGGGTG, the “relative binding free energy” value is -0.26 kcal/mol.
Next, TGGTGCACGTGAGGTC: 0.22 kcal/mol; TAAAGCACGTGAGCTT: 0.25 kcal/mol.
Take TAGAGCACGTGTTGTT: the “relative binding free energy” value is -0.08 kcal/mol.
For GGTGACACGTGAGTTC, the “relative binding free energy” value turned out to be 0.3 kcal/mol.
Take TAGTTCACGTGGGCGA: the “relative binding free energy” value is 0.16 kcal/mol.
Next, ATTACCACGTGTGTGG: -0.04 kcal/mol; ATAAGCACGTGTGGCT: -0.11 kcal/mol.
Next, CGGAGCACGTGTGGCT: 0.04 kcal/mol; GTGGTCACGTGTATAA: 0.23 kcal/mol.
In the case of ATTGGCACGTGGGATT it was -0.1 kcal/mol.
For TACGTCACGTGTGTAG, the “relative binding free energy” value worked out at 0.18 kcal/mol.
